Hit rate of the full screen: of about 230,000 compounds, about 3,600 (1.6%) were called active. The shares of active, inactive and inconclusive entries below differ from those in the screen. Calls come from the whole dose curve; as a rule, active = well fitted inhibition curve with a large enough effect (not every such curve was filed as active); inconclusive = small, poorly fitted or top-dose-only effect, or another doubt; inactive = no such curve, though single readings can be large or run the other way. Potencies of inconclusive entries are doubtful fits and often do not repeat.
Biological target: Lysine-specific demethylase 4E (Homo sapiens) (UniProt B2RXH2)
Chain of UniProt B2RXH2 (B2RXH2 whole entry, looked up, the tested form may be a part): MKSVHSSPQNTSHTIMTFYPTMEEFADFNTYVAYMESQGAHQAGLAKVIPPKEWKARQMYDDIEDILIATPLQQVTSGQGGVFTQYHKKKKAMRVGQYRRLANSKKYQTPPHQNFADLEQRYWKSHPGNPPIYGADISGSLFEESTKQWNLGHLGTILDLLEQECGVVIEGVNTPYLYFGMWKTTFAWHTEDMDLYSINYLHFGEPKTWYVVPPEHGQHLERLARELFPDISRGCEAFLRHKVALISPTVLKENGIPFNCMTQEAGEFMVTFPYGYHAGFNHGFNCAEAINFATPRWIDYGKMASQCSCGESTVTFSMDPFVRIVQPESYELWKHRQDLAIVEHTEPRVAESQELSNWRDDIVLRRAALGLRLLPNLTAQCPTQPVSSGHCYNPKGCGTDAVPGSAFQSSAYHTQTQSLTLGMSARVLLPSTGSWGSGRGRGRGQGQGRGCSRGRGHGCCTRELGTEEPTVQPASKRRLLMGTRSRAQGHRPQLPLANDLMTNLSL
Test: qHTS Assay for Inhibitors of Human Jumonji Domain Containing 2E (JMJD2E)
Details: JMJD2E catalytic domain, FDH-coupled NADH fluorescence (FDH is formaldehyde dehydrogenase); series mostly up to 57.1 µM; activity change, negative = inhibition: at the top concentration
Note: nearly all actives have a fitted effect of over 50% in size.
Potency is the fitted concentration of half-maximal effect; tags give direction and shape of the fitted curve.
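Throughout, for activity change, negative = inhibition: 0% = wells with enzyme and -100% = buffer wells without enzyme.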

Compound | Potency | activity change, negative = inhibition
Cn1c(=O)cc(SCC(=O)NCCCN2CCOCC2)c2ccc(Cl)cc21 | inconclusive: 39.8 µM [inhibitor, single point] | 
CCOC(=O)Nc1ccc2c(CN3C(=O)NC(CC)(CC)C3=O)cc(=O)oc2c1 |  | inactive: 15.4%
COc1ccc(/C=C/C(=O)OCC(=O)NCc2ccco2)c(OC)c1 | inconclusive: 31.6 µM [inhibitor, single point] | 
Cc1ccc(NC(=O)c2cc(NC(=O)C3CC=CCC3C(=O)O)ccc2N2CCOCC2)cc1 (stereo unspecified) |  | inactive: 9.25%
O=C(NC1CCCCCCC1)C1CCC(CNc2c(N3CCCC3)c(=O)c2=O)CC1 (stereo unspecified) |  | inactive: -2.4%
CSc1nc2nccc(-c3ccc(Oc4ccccc4)cc3)n2n1 | inconclusive: 35.5 µM [inhibitor, partial curve] | 
C#CCn1c(=NC(=O)c2cc(-c3cccs3)nc3ccccc23)sc2cc(S(N)(=O)=O)ccc21 | inconclusive: 20 µM [inhibitor, partial curve] | 
Cn1c(=O)c2c(nc(N/N=C/c3ccc(OC(=O)c4ccco4)cc3)n2Cc2ccc(F)cc2)n(C)c1=O |  | inactive: -5.84%
CN1CCN(CCCNC(=O)Nc2cccc3ccccc23)CC1 | inconclusive: 28.2 µM [inhibitor, single point] | 
Cc1nc2cc(NC(=O)Nc3cccc4ccccc34)ccc2n1C | inconclusive: 35.5 µM [inhibitor, partial curve] | 
O=[N+]([O-])c1ccccc1CN1CCN(Cc2c[nH]c3ccccc23)CC1 | inconclusive: 35.5 µM [inhibitor, single point] | 
CC1(C)S[C@@H]2[C@H](NC(=O)C(N)c3ccccc3)C(=O)N2[C@H]1C(=O)O (stereo partly specified) | inconclusive: 15.8 µM [inhibitor, single point] | 
O=C(NCCOC(=O)C1COc2ccccc2O1)C1COc2ccccc2O1 (stereo unspecified) |  | inactive: -4.74%
O=C1CC(Cc2ccccc2)C(=O)N1Cc1ccco1 (stereo unspecified) |  | inactive: -4.84%
OC(C#CCN1CCCC1)(c1ccccc1)c1cccnc1 (stereo unspecified) | inconclusive: 31.6 µM [inhibitor, single point] | 
CCOC(=O)c1nc(-c2ccccc2)oc1N1CCOCC1 | inconclusive: 28.2 µM [inhibitor, partial curve] | 
O=C(N/N=C/c1ccc(N2CCOCC2)cc1)c1ccccc1OCCOc1ccccc1 | inconclusive: 31.6 µM [inhibitor, partial curve] | 
COc1ccc(NC(=S)N(CCc2c(C)[nH]c3ccccc23)Cc2ccco2)cc1 |  | inactive: -2.97%
C1CCC(n2nnnc2CN2CCN(C3CCCC3)CC2)CC1 |  | inactive: -0.0187%
O=C(Nc1nc2c(s1)CCCC2)c1cccnc1 |  | inactive: 13.6%
CCCN1C(=O)/C(=C\C=C2\N(CC)c3ccccc3C2(C)C)SC1=S | inconclusive: 8.91 µM [inhibitor, single point] | 

Reference: PubChem BioAssay AID2147 (National Center for Advancing Translational Sciences (NCATS), 2009)
